{
  "source": "PubChem BioAssay AID624418",
  "about": "(National Center for Advancing Translational Sciences (NCATS), 2012)",
  "note": "Out of some 410,000 compounds screened, about 530 (0.13%) were called active. The shares of active, inactive and inconclusive entries below differ from those in the screen. Calls follow the shape of the dose curve; as a rule, active = well fitted inhibition curve with a large enough effect; inconclusive = small, poorly fitted or top-dose-only effect, or another doubt; inactive = no such curve, though single readings can be large or run the other way. A potency beside an inconclusive call is a rough fit, not a confirmed value. % is scaled to controls: 0 for no effect and ±100 for the full control effect; potency is read from the fitted curve at half-maximal effect.",
  "data": [
    {"experiment": "qHTS of GLP-1 Receptor Inverse Agonists: Cytotox Screen", "conditions": "HEK293 cAMP-luciferase reporter cells, luminescence, 24 h; activity change, negative = inhibition: at 38.3 µM (top of the series) unless noted", "summary_of_the_method": "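Luminescence readout: signal drop marks cytotoxicity. Plated cells grew 12 h at 37 °C, 5% CO2, received 23 nL compound for 24 h, then got luciferase reagent, read after 12 min at RT.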", "values": [
      {"smiles": "CC1(C)C[C@H]2C=C(C=O)[C@]3(C=O)C[C@]3(C)[C@H]2C1", "Potency": "inconclusive: 10 µM [inhibitor, partial curve, poor fit]"},
      {"smiles": "OC(Cn1c2ccccc2c2ccccc21)C[n+]1cccc2ccccc21", "note": "(stereo not given)", "Potency": "inconclusive: 31.6 µM [inhibitor, partial curve, poor fit]"},
      {"smiles": "Cc1ccc2c(c1)[C@@H]1CN(C)CC[C@@H]1N2C(=O)Nc1cccc(C(F)(F)F)c1", "Potency": "inconclusive: 11.2 µM [inhibitor, partial curve, poor fit]"},
      {"smiles": "Cc1ccc(C2CC3CCC(C2)N3Cc2ccccc2F)cc1", "note": "(stereo not given)", "Potency": "inconclusive: 20 µM [inhibitor, single point]"},
      {"smiles": "CC(C)(C)c1cc(C(=O)N/N=C/c2ccc([N+](=O)[O-])s2)n[nH]1", "Potency": "inconclusive: 11.2 µM [inhibitor, single point]"},
      {"smiles": "O=C(CCN1CC1)OCCOC(=O)CCN1CC1", "Potency": "inconclusive: 28.2 µM [inhibitor, single point]"},
      {"smiles": "Cc1[nH]c2ccccc2c1C(O)CN1CCN(c2cccc(C(F)(F)F)c2)CC1", "note": "(stereo not given)", "Potency": "inconclusive: 11.2 µM [inhibitor, partial curve, poor fit]"},
      {"smiles": "COc1ccc(CC(C)NCCC(c2ccccc2)c2ccccc2)cc1", "note": "(stereo not given)", "Potency": "inconclusive: 28.2 µM [inhibitor, single point]"},
      {"smiles": "Cc1cccc(CN2CCCC(C(=O)c3ccc(C(F)(F)F)cc3)C2)n1", "note": "(stereo not given)", "Potency": "inconclusive: 2.51 µM [inhibitor, full curve]"},
      {"smiles": "Cc1ccc2cc(CN(CC3CCCO3)S(=O)(=O)c3ccccc3)c3nnnn3c2c1", "note": "(stereo not given)", "Potency": "inconclusive: 4.47 µM [inhibitor, full curve, poor fit]"},
      {"smiles": "COC(=O)C1=C(c2ccc3ccccc3c2)C[C@@H]2CC[C@H]1N2C(=O)NCCO", "Potency": "inconclusive: 31.6 µM [inhibitor, single point]"},
      {"smiles": "C[C@H]1CN([C@@H](C)CO)C(=O)c2cccc(NC(=O)Nc3ccc(C(F)(F)F)cc3)c2O[C@@H]1CN(C)C(=O)Nc1ccc(F)cc1", "Potency": "inconclusive: 12.6 µM [inhibitor, single point]"},
      {"smiles": "Cc1cc(C)cc(N2C(=O)NC(=O)/C(=C\\c3cccn3-c3ccccc3)C2=O)c1", "activity change, negative = inhibition": "inactive: -8.14%"},
      {"smiles": "CC(=O)Nc1cc(-c2cccc(C(=O)NCCN(C)C)c2)cn2c(-c3cccc(C(F)(F)F)c3)cnc12", "Potency": "inconclusive: 28.2 µM [inhibitor, single point]"},
      {"smiles": "O=C1NC(=S)NC(=O)C1=Cc1cccc2cc3ccccc3cc12", "Potency": "inconclusive: 12.6 µM [inhibitor, single point]"},
      {"smiles": "Cc1ccc(N2C(=O)NC(=O)/C(=C\\C=C\\c3ccco3)C2=O)cc1C", "Potency": "inconclusive: 20 µM [inhibitor, single point]"},
      {"smiles": "CC(C)CCCn1c(O)c(/C=C2/C=CC=N2)c(=O)[nH]c1=O", "Potency": "inconclusive: 22.4 µM [inhibitor, single point]"},
      {"smiles": "CCOC(=O)N1CCN(C(c2cccnc2)c2ccc3cccnc3c2O)CC1", "note": "(stereo not given)", "Potency": "inconclusive: 10 µM [inhibitor, partial curve]"},
      {"smiles": "Cc1ccc(S(=O)(=O)c2nc(-c3ccccc3Cl)oc2N(C)C2CCN(C)CC2)cc1", "Potency": "inconclusive: 22.4 µM [inhibitor, single point]"},
      {"smiles": "CN(CC(=O)Nc1ccc(F)cc1)C(=O)COC(=O)c1ccc(-c2ccccc2)cc1", "Potency": "inconclusive: 28.2 µM [inhibitor, single point]"},
      {"smiles": "CCOC(=O)C(C(=O)OCC)C(Nc1ccc(Br)cc1)c1ccccc1", "note": "(stereo not given)", "Potency": "inconclusive: 12.6 µM [inhibitor, single point]"},
      {"smiles": "CCOC(=O)[C@]12Cc3cc(Cl)ccc3[C@H]1N(Cc1ccccc1)C(=O)c1cc(OC)ccc12", "Potency": "inconclusive: 20 µM [inhibitor, single point]"},
      {"smiles": "O=C1NC(=O)C(=Cc2ccc(Sc3ccccc3)o2)C(=O)N1", "Potency": "inconclusive: 28.2 µM [inhibitor, single point]"},
      {"smiles": "CN(C)C(=O)c1ccc(N=Nc2c(O)c3ccccc3[nH]c2=O)cc1", "Potency": "inconclusive: 11.2 µM [inhibitor, partial curve, poor fit]"},
      {"smiles": "CN(C)CCC1(C2=CCCC2)CC/C(=C/c2ccc(Cl)cc2)C1=O", "note": "(stereo not given)", "Potency": "inconclusive: 10 µM [inhibitor, single point]"},
      {"smiles": "Cc1nc2ccccc2c(=O)n1-c1cccc(O)c1", "activity change, negative = inhibition": "inactive: 17.4%"},
      {"smiles": "CNc1cccc2c1C(=O)c1ccccc1C2=O", "Potency": "inconclusive: 11.2 µM [inhibitor, single point]"},
      {"smiles": "CCOC(=O)C1(CCCc2ccccc2)CCN(C2CCCC2)CC1", "Potency": "inconclusive: 11.2 µM [inhibitor, single point]"},
      {"smiles": "COc1cc(N=Nc2cccc(S(N)(=O)=O)c2)c2ccccc2c1N", "Potency": "inconclusive: 10 µM [inhibitor, partial curve, poor fit]"},
      {"smiles": "C#C[C@]1(O)CCC2C3CC=C4C[C@H](O)CC[C@]4(C)C3CC[C@@]21C", "note": "(stereo not given in full)", "activity change, negative = inhibition": "inactive: 1.33%"},
      {"smiles": "COc1ccc(C(C)=O)cc1CSc1nc(NCc2ccccc2)c2ccccc2n1", "Potency": "inconclusive: 10 µM [inhibitor, partial curve, poor fit]"},
      {"smiles": "C[C@]12C=CC(=O)C=C1C=C[C@@H]1C2CC[C@]2(C)C(=O)CCC12", "note": "(stereo not given in full)", "activity change, negative = inhibition": "inactive: -11.4%"},
      {"smiles": "COc1ccccc1/C=C/C1(C(=O)NC2CCCC2)CC(=O)N1c1ccc(F)cc1", "note": "(stereo not given)", "Potency": "inconclusive: 22.4 µM [inhibitor, single point]"},
      {"smiles": "Cc1ccccc1NC(=O)Nc1nc(C(N)C2CCCCC2)cs1", "note": "(stereo not given)", "Potency": "inconclusive: 28.2 µM [inhibitor, single point]"},
      {"smiles": "COC(=O)C(O)(c1ccc(NC(=O)Oc2ccccc2)cc1)C(F)(F)F", "note": "(stereo not given)", "activity change, negative = inhibition": "inactive: -13.3%"},
      {"smiles": "N#CC1=C(N)NC(SCC(=O)Nc2ccc(Br)cc2)=C(C#N)C12CCCCC2", "Potency": "inconclusive: 28.2 µM [inhibitor, single point]"},
      {"smiles": "CCN1CCN(Cc2ccc(NC(=O)c3cc(NC(=O)c4cncc(-c5cccs5)c4)cc(OC)c3)cc2C(F)(F)F)CC1", "Potency": "inconclusive: 12.6 µM [inhibitor, single point]"},
      {"smiles": "CCOC(=O)Cn1c(=N)n(CCOc2ccc3ccccc3c2)c2ccccc21", "Potency": "inconclusive: 12.6 µM [inhibitor, single point]"},
      {"smiles": "NC(=O)C1CCN(C2=C(NS(=O)(=O)c3ccc(Br)cc3)C(=O)c3ccccc3C2=O)CC1", "Potency": "inconclusive: 10 µM [inhibitor, partial curve, poor fit]"},
      {"smiles": "CC1=C(C(=O)OCC(C)C)C(c2cccs2)NC(=S)N1", "note": "(stereo not given)", "Potency": "inconclusive: 11.2 µM [inhibitor, single point]"},
      {"smiles": "C=CCN1CCc2cccc3c2[C@H]1Cc1ccc(O)c(O)c1-3", "Potency": "inconclusive: 25.1 µM [inhibitor, single point]"},
      {"smiles": "COc1ccc(Oc2c(Cl)cnn(-c3ccc(Cl)c(Cl)c3)c2=O)cc1", "Potency": "inconclusive: 28.2 µM [inhibitor, single point]"},
      {"smiles": "O=[N+]([O-])c1ccc(/C=N/Nc2ccnc3cc(Cl)ccc23)o1", "Potency": "inconclusive: 11.2 µM [inhibitor, partial curve, poor fit]"},
      {"smiles": "Cc1nc2ccc(NC(=O)c3cccc(S(=O)(=O)N(C)c4ccccc4)c3)cc2s1", "Potency": "inconclusive: 11.2 µM [inhibitor, single point]"},
      {"smiles": "CN(C)C(=O)Nc1cccc(OC(=O)N(C)C)c1", "activity change, negative = inhibition": "inactive: -1.42%"},
      {"smiles": "Nc1ncc(-c2nnnn2-c2ccc(Cl)cc2)c(-c2ccc(Cl)cc2)n1", "Potency": "inconclusive: 4.47 µM [inhibitor, full curve]"},
      {"smiles": "CC(=NNC(=S)N1CC2CCC(CC2)C1)c1nccs1", "Potency": "inconclusive: 0.316 µM [inhibitor, full curve, poor fit]"},
      {"smiles": "CCOC(=O)c1ccc(N=NN(C)C)cc1", "Potency": "inconclusive: 8.91 µM [inhibitor, partial curve]"},
      {"smiles": "Cc1ccc(C)c(NC(=S)NCCc2cnc[nH]2)c1", "Potency": "inconclusive: 28.2 µM [inhibitor, single point]"},
      {"smiles": "COc1cc(CNCCO)cc(Cl)c1OCc1ccc(Cl)cc1Cl", "Potency": "inconclusive: 10 µM [inhibitor, single point]"},
      {"smiles": "COc1ccc(-c2cc(C(F)(F)F)nc(S(=O)(=O)CCCC(=O)Nc3cccc(O)c3)n2)cc1OC", "Potency": "inconclusive: 28.2 µM [inhibitor, single point]"},
      {"smiles": "O=C1C=CC(=O)C2C1C1(Cl)C(Cl)=C(Cl)C2(Cl)C1(Cl)Cl", "note": "(stereo not given)", "Potency": "inconclusive: 10 µM [inhibitor, partial curve, poor fit]"},
      {"smiles": "Cc1cc(C)c2sc(N(CCCN(C)C)C(=O)c3ccc(Br)s3)nc2c1", "Potency": "inconclusive: 28.2 µM [inhibitor, single point]"},
      {"smiles": "Cc1c(NS(=O)(=O)c2ccccc2)ccc([N+](=O)[O-])c1Cl", "Potency": "inconclusive: 10 µM [inhibitor, single point]"},
      {"smiles": "O=c1[nH]c2ccccc2n1C1CCN(C(c2ccccc2)c2nnnn2-c2ccc3c(c2)OCCO3)CC1", "note": "(stereo not given)", "Potency": "inconclusive: 7.94 µM [inhibitor, partial curve]"},
      {"smiles": "CN1CCN(CCCN2c3ccccc3Sc3ccc(C(F)(F)F)cc32)CC1", "Potency": "inconclusive: 28.2 µM [inhibitor, single point]"},
      {"smiles": "CCCOC(=O)c1cccc(Nc2nc(-c3cccnc3)nc3ccccc23)c1", "Potency": "inconclusive: 28.2 µM [inhibitor, single point]"},
      {"smiles": "CCOC(=O)c1ccc(N=C(C)c2c(O)[nH]c(=O)[nH]c2=O)cc1", "Potency": "inconclusive: 1.58 µM [inhibitor, partial curve, poor fit]"},
      {"smiles": "Cc1nc2ccccc2n1C1CCN(CC(=O)Nc2ccccc2Br)CC1", "Potency": "inconclusive: 28.2 µM [inhibitor, single point]"},
      {"smiles": "S=C(Nc1ccc(Br)cc1)NC1CCN(Cc2ccccc2)CC1", "Potency": "inconclusive: 12.6 µM [inhibitor, single point]"}
    ]}
  ]
}
